From patent US20210115145A1, “COMBINATION THERAPY WITH TARGETED TGF-B INHIBITION FOR TREATMENT OF ADVANCED NON-SMALL CELL LUNG CANCER” (Merck Patent GmbH, priority 2018, published 2021) come the findings set out here.

This assay relates to Detroit 562 human pharyngeal carcinoma model. The assay can be described thus: Detroit 562 xenograft model. The assay is classed as in vivo. The settings on record: 25 μg, 76 μg or 228 μg; subcutaneous implantation; FIG. 5.

B1: anti-PDL1(mut)/TGFβ Trap: Trap control: TGFβRII portion active, mutated anti-PD-L1; light chain SEQ ID NO: 6, heavy chain SEQ ID NO: 7 (antibody)
heavy: EVQLLESGGGLVQPGGSLRLSCAASGFTFSMYMMMWVRQAPGKGLEWVSSIYPSGGITFYADSVKGRFTISRDNSKNTLYLQMNSLRAEDTAIYYCARIKLGTVTTVDYWGQGTLVTVSSASTKGPSVFPLAPSSKSTSGGTAALGCLVKDYFPEPVTVSWNSGALTSGVHTFPAVLQSSGLYSLSSVVTVPSSSLGTQTYICNVNHKPSNTKVDKRV[here human IgG1 Fc without letters]GGGGSGGGGSGGGGSGGGGSGIPPHVQKSVNNDMIVTDNNGAVKFPQLCKFCDVRFSTCDNQKSCMSNCSITSICEKPQEVCVAVWRKNDENITLETVCHDPKLPYHDFILEDAASPKCIMKEKKKPGETFFMCSCSSDECNDNIIFSEEYNTSNPD
light: QSALTQPASVSGSPGQSITISCTGTSSDVGGYNYVSWYQQHPGKAPKLMIYEVSNRPSGVSNRFSGSKSGNTASLTISGLQAEDEADYYCSSYTSSSTYVFGTGTKVTVLGQPKANPTVTLFPPSSEELQANKATLVCLISDFYPGAVTVAWKADGSPVKAGVETTKPSKQSNNKYAASSYLSLTPEQWKSHRSYSCQVTHEGSTVEKTVAPTECS
B1: the tumor volume result is “dose-dependent reduction in tumor volume”.
